# Assay results: paper PMC4336329 (PLoS ONE, 2015)
# About 14,000 (4.5%) of roughly 310,000 compounds showed an effect of 50% or more. The effect is printed as a negative number. The list shows a part of the results.
# Target: human ether-à-go-go-related gene (hERG) potassium channel (human, UniProt Q12809)
# Test: primary screen, population patch clamp on CHO cells stably expressing hERG
# 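Note: peak tail current of the secondary pulse compared with the same well before compound.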
# human ether-à-go-go-related gene (hERG) potassium channel, sequence (Q12809 whole entry, looked up): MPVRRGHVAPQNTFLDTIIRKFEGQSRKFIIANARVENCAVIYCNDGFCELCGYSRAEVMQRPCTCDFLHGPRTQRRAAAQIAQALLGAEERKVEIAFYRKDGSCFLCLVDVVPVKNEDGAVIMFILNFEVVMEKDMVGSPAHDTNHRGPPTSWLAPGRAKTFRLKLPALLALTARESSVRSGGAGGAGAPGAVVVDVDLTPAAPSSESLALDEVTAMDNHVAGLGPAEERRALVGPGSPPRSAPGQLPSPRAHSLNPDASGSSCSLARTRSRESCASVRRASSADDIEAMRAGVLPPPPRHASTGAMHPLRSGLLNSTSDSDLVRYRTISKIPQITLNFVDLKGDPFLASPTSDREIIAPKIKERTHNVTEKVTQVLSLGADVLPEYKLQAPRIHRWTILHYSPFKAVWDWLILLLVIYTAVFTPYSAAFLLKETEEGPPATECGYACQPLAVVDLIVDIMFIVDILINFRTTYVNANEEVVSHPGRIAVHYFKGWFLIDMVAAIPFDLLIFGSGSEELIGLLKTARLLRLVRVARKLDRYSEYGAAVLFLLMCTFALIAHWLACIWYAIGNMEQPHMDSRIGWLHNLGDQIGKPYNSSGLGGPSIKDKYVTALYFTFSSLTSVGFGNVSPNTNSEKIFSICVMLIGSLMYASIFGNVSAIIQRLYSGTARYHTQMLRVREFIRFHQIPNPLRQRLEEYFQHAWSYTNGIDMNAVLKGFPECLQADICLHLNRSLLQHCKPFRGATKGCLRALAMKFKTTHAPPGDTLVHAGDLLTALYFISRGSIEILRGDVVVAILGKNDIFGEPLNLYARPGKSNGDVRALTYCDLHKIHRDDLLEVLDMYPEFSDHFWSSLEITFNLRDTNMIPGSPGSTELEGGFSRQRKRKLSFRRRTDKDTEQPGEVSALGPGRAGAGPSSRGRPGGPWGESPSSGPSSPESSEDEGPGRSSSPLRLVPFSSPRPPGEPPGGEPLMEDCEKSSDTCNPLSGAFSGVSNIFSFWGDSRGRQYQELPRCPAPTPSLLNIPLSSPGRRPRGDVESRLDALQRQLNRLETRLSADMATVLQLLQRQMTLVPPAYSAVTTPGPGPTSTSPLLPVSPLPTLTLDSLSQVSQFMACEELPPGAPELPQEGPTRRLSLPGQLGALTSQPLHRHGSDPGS
row,Compound,"hERG current change (%, negative = inhibition) at 10uM [%]"
1,CN1CCN(c2ccc(C(=O)NC3CCCCC3)cc2[N+](=O)[O-])CC1,-9.83
2,CCOC(=O)c1c(C)nc(-c2ccccc2)nc1N,7.25
3,C=CCOc1ccc(C(=O)O)cc1Cl,-3.19
4,Cc1cc(NS(=O)(=O)c2ccccc2)c(C)c(Cl)c1O,-1.75
5,COc1ccccc1NC(=O)Cc1nnc(SCC(=O)NC2CCCCC2)n1C,18.9
6,CCOC(=O)C1=C(C)N(C)C(=O)NC1c1ccc(C)s1 (centres unmarked),5.79
7,CCOC(=O)c1ccc(NC(=O)CSc2nc(C)cc(=O)[nH]2)cc1,14.4
8,CCOC(=O)C1(c2nc(N)cs2)COC(=O)C1 (centres unmarked),16.3
9,Cc1ccc(-n2c(O)c(C=Nc3ccc(Br)cn3)c(=O)[nH]c2=O)cc1,11.5
10,O=C(c1ccccc1-c1ncc[nH]1)N1CCc2c([nH]c3ccccc23)C1c1ccccn1 (centres unmarked),-25.1
11,CC(C)C(=O)Nc1ccc(S(=O)(=O)Nc2ccccn2)cc1,1.92
12,CCn1nnnc1SCC(=O)Nc1cccc(NC(C)=O)c1,-1.06
13,O=C(COc1ccccc1-c1ccccc1)NCc1ccco1,-28
14,COc1ccc2nc(SCC(=O)Nc3nccs3)[nH]c2c1,11.4
15,CC1CC(=O)N(CC(=O)Nc2cccc(F)c2)c2ccccc2S1(=O)=O (centres unmarked),-4.3
16,COC(=O)c1ccccc1NC(=O)c1ccccc1SC,-7.31
17,CCN1/C(=C/c2cccc[n+]2C)Sc2ccc(OC)cc21.[I-],-67.3
18,Cc1ccc2nc(CSc3nnc(-c4ccncc4)n3C)cc(=O)n2c1,0.704
19,Cl.Cn1nnc2c(N3CCCCC3)nccc21,-8.39
20,CCOC(=O)c1cnc2c(C)c(Cl)ccc2c1N1CCOCC1.Cl,10.8
21,COc1ccc(C2NC(=S)NC3=C2CCc2ccccc23)cc1OC (centres unmarked),13.3
22,CCOC(=O)c1[nH]c2c(c1-c1ccccc1)C(=O)CC(c1ccc(Cl)cc1)C2 (centres unmarked),9.15
23,O=C(Cn1c(=O)oc2cc(S(=O)(=O)N3CCCC3)ccc21)NCc1ccc(F)cc1,-1.73

row,Compound,"hERG current change (%, negative = inhibition) at 10uM [%]"
1,CCOC(=O)N1CCC(NC(=O)c2cc(C)c3c(C)nn(-c4ccccc4)c3n2)CC1,0.638
2,Cl.O=C(NCC(c1cccs1)N1CCOCC1)c1ccccc1NS(=O)(=O)c1ccc(Cl)c([N+](=O)[O-])c1 (centres unmarked),-6.82
3,CCc1nnc(NC(=O)CCN2C(=O)c3ccccc3S2(=O)=O)s1,17.3
4,CC1(C)CC2CC(C)(CN2S(=O)(=O)c2cccc(C(=O)OCC(N)=O)c2)C1 (centres unmarked),-7.62
5,COCCNC(=O)c1cc2c(-c3ccccc3F)nn(C)c2s1,-6.2
6,CCC1C(=O)Nc2ccccc2N1C(=O)COc1ccccc1 (centres unmarked),7.72
7,O=C(Cc1c(F)cccc1Cl)NCCCn1ccnc1,-24.6
8,Cc1ccsc1CN(C)C(=O)c1cc(S(=O)(=O)N2CCOCC2)ccc1N1CCCC1,-40.5
9,CC(C)(C)N(NC(=O)OCc1ccccc1)C(=O)c1ccccc1,3.5
10,COc1ccc(C(=O)C2CCN(C(=O)c3ccc(F)cc3)CC2)cc1,-28.5
11,COc1cccc(CC(NC(C)=O)C(=O)NC2CCN(C(=O)c3ccc(Cl)cc3)CC2)c1OC (centres unmarked),-9.4
12,CCN1CCN(C2=C(Cl)C(=O)N(Cc3ccccc3)C2=O)CC1,-41.2
13,COc1ccc(Cl)cc1NS(=O)(=O)c1cccc(C(=O)NC2CCC(O)CC2)c1 (centres unmarked),-26.3
14,O=C(C1=C[C@H](c2ccc3c(c2)OCO3)C[C@H](OCc2ccc(CO)cc2)O1)N1CCCCCCC1,-33.3
15,COc1ccc2nc(SCC(=O)NCC(F)(F)F)[nH]c2c1,7.08
16,NC(=O)c1ccsc1NC(=O)COC(=O)CSc1ccc(Cl)cc1,20.8
17,O=C(N/N=C/c1cccnc1)c1cc2ccccc2cc1O,5.26
18,CC1=C(C#N)C(c2ccc(O)cc2)C2=C(CC(C)(C)CC2=O)N1 (centres unmarked),19.3
19,Cc1ccc(-c2noc(CSc3nnc(Cc4cccs4)n3-c3ccccc3)n2)cc1,-17.9
20,Cn1ncc(Cl)c1C(=O)N/N=C/c1ccccn1,4.18
21,CN(CC(=O)Nc1ccccc1Cl)C(=O)CSC(=S)N1CCCC1,-0.418
22,O=C(O)c1ccccc1SSc1ccccc1C(=O)O,25.5
23,O=C(N/N=C/c1ccc(OC(=O)c2ccco2)cc1)c1ccncc1,9.91

row,Compound,"hERG current change (%, negative = inhibition) at 10uM [%]"
1,CN(C(=O)c1cc(-c2ccccc2)on1)C1CCCCC1,10.5
2,O=C(Nc1cccc(Cl)c1)N1CCOCC1,20
3,CCc1ccccc1NS(=O)(=O)c1ccc(OC)c2ncccc12,8.84
4,CC(C)C(NS(=O)(=O)c1cccc2nsnc12)C(=O)N1CCCCC1 (centres unmarked),-3.61
5,Cc1ccc(C(=O)OCC(=O)N2CC(C)OC(C)C2)cc1 (centres unmarked),24.1
6,CCCCCCCCCCCCN1[C@@H](CC(=O)O)c2cc(C(F)(F)F)ccc2S1(=O)=O,-6.65
7,O=C1c2ccccc2C(=O)N1OCCOCCOCCON1C(=O)c2ccccc2C1=O,-29.2
8,Cc1ccc(C)c(NC(=O)CCN2C(=O)[C@@H]3Cc4ccccc4CN3C2=O)c1,-5.26
9,COc1ccc2oc3cc(C)[n+]([O-])c(-c4ccc(C)cc4)c3c2c1,-6.95
10,CCNC(=S)N/N=C/c1ccc(C(=O)O)cc1,10.3
11,CC(=O)Nc1ccc(S(=O)(=O)NCCC(=O)OCC(=O)N2CCN(C(=O)c3ccco3)CC2)cc1,7.42
12,O=C(CCc1ccccc1)c1nnc(-c2ccccc2)o1,-20.7
13,O=C(CNC(=O)c1ccc2c(c1)OCCO2)N/N=C/c1cccc(Br)c1,-18.8
14,COc1cccc(NC(=O)Cc2nnc(SCC(=O)NC(C)c3ccccc3)n2C)c1 (centres unmarked),15.1
15,C=CCOC(=O)C1=C[C@H](C2CCCCC2)[C@@H](CCCO)[C@H](OCC)O1,-10
16,Cc1ccc(S(=O)(=O)CC(=O)c2cc(C)c(O)c(C)c2)cc1,3.72
17,Cn1c(N=NC(=O)c2ccccc2)c(O)c2ccccc21,8.6
18,Cl.Oc1ccc(CC2(N3CCCC3)CCCCC2)cc1,12.5
19,CC1CCc2nn(CC(=O)NCCN3CCCCC3C)cc2C1 (centres unmarked),-14.6
20,CCCCN(CCCC)CCNC(=O)c1cn(CC)c2ccc(S(=O)(=O)N3CCCC3)cc2c1=O,-65.7
21,CC(C)CCNC(=O)NC(=O)CSc1ncccn1,21.7
22,Cn1cnnc1SCC(=O)Nc1ccc2c(c1)CCC2,4.78
23,COc1ccc(C/C(N)=N/n2cnnc2)cc1Cl,17

row,Compound,"hERG current change (%, negative = inhibition) at 10uM [%]"
1,O=C(NCCC1=CCCCC1)C1CCC(CNS(=O)(=O)c2ccccc2)CC1 (centres unmarked),1.26
2,COc1cccc(NC(=O)NCC2CCN(Cc3ccc(F)cc3)CC2)c1,-47.4
3,COc1ccc(S(=O)(=O)NC2CC2)cc1Cl,13.9
4,CCOC(=O)CNC(=O)c1ccc(Br)s1,-9.48
5,COc1cc(Cl)c(C)cc1NC(=O)CN(C)Cc1cccc(OC)c1OC,-6.16
6,COc1ccc(OC)c(NC(=S)N(CCc2c(C)[nH]c3ccccc23)Cc2cccs2)c1,-4.4
7,CC1=C(C(=O)Nc2ccccc2C(=O)NCCCOC(C)C)SCCO1,14
8,Cc1noc(C)c1COc1ccc(C(=O)N2CCN(S(=O)(=O)c3ccc(Cl)cc3)CC2)cc1,-12.4
9,O=C(COC(=O)c1cccnc1Cl)Nc1ccc(N2CCCCC2)cc1,-2.97
10,Nc1ccc(C(=O)OCC(=O)N2CCN(C(=O)c3ccco3)CC2)cc1[N+](=O)[O-],-3.64
11,CCC1(c2ccccc2)NC(=O)N(CC(=O)Nc2ccc(S(N)(=O)=O)cc2)C1=O (centres unmarked),10.4
12,Cc1ccc(S(=O)(=O)NCCC(=O)N2CCCCCC2)cc1,1.86
13,FC(F)(F)c1cc(-c2ccccc2)nc(-n2cc(Cl)cn2)n1,9.49
14,COc1cc(OC)c(OC)cc1CNCC1COc2ccccc2O1.Cl (centres unmarked),-4.76
15,CCNc1ccc(C(=O)OC(C(=O)NC(N)=O)C(C)C)cc1[N+](=O)[O-] (centres unmarked),11.4
16,O=C(Nc1ccc2c(c1)oc1ccc(S(=O)(=O)N3CCCC3)cc12)C1CC1,7.36
17,COC(=O)[C@@]1(Cc2ccc(OC)cc2)[C@H]2c3cc(C(=O)N(C)C)[nH]c3C[C@H]2CN1C(=O)c1ccccc1,-29.8
18,CCC(C)Oc1nc(C)cc(C)c1S(=O)(=O)c1ccccc1C (centres unmarked),4.94
19,CCc1c(C(=O)Nc2nnc(C3CC3)s2)csc1C,11
20,CCc1nc(Nc2cccc(F)c2)c2oc3ccccc3c2n1.Cl,14.8
